Measurements as given in PubChem BioAssay (Tox21).
Values joined by “and” are separate entries in the source; they are usually repeats but may differ in a detail not shown here. Equal values may be shown once. The shares of active, inactive and inconclusive entries below differ from those in the screen. Potencies of inconclusive entries are doubtful fits and often do not repeat. Active and inactive are the calls of the source. Unless noted, calls come from the whole dose curve; as a rule, active = well fitted curve in the direction sought with a large enough effect in the repeat runs; inconclusive = weak or mixed curves; inactive = no such curve, though single readings can be large; an effect the other way counts as inactive or inconclusive.

System: not listed separately
Assay: qHTS assay to identify aromatase inhibitors - cell viability counter screen (AID 743084);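 note: cells stimulated with testosterone during compound exposure; nearly all actives have a fitted effect of over 55% in size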
Conditions: MCF-7 aro ERE viability, CellTiter-Fluor, 24 h; activity change, negative = cytotoxicity: at 70.3 µM (top of the series) unless noted
% is set by controls: 0 for no effect and ±100 for the full control effect; potency is the fitted concentration of half-maximal effect; tags give direction and shape of the fitted curve or compound fluorescence and quenching.

Compound	Potency	activity change, negative = cytotoxicity
Cc1ccc(N)c(C)c1	inconclusive: 30.3 µM [rising, partial curve]	–
CC(=O)c1cc2c(cc1C)C(C)(C)C(C)CC2(C)C (stereo not drawn)	inconclusive: 68.6 µM [cytotoxic, single point]	–
CCCCCCCCCCCCCCCC[n+]1ccccc1	inconclusive: 23.7 µM [cytotoxic, partial curve]	–
C[C@@H](N)[C@@H](O)c1ccccc1	–	inactive: 1.04% [at 32.5 µM]
CCCCON=O	–	inactive: -5.54% [at 95 µM]
Cc1ncc(CNC(=O)N(CCCl)N=O)c(N)n1	–	inactive: 11.3%

Target: Aryl hydrocarbon receptor (Homo sapiens) (UniProt P35869)
Sequence of UniProt P35869 (P35869 whole entry, looked up): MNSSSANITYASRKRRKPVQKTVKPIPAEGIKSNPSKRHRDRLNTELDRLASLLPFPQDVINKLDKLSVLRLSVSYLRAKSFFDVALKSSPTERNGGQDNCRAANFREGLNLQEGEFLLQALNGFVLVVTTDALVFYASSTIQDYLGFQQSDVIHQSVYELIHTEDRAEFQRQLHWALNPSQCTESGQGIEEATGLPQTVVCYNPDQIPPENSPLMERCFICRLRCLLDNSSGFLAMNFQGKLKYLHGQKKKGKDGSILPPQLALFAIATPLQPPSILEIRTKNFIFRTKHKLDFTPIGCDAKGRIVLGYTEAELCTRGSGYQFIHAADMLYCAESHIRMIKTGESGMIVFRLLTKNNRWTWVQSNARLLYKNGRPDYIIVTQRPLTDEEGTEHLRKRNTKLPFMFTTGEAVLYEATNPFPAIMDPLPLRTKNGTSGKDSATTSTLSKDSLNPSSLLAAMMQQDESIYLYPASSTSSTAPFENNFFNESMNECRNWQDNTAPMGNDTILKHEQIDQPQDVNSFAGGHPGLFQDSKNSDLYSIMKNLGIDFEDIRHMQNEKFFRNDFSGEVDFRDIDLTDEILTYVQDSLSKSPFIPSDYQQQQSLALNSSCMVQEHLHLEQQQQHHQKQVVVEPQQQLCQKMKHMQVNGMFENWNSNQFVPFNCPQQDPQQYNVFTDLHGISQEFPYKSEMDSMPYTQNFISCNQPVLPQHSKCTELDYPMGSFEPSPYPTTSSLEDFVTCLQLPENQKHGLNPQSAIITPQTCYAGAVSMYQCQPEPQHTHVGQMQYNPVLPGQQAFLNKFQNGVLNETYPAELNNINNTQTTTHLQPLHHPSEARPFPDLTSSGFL
Assay: qHTS assay to identify small molecule that activate the aryl hydrocarbon receptor (AhR) signaling pathway (AID 743085); note: nearly all actives have a fitted effect of over 15% in size;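 for activation: HG2L7.5c1 human HepG2 liver cells with stably integrated DRE-driven firefly reporter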
Conditions: HepG2 AhR-luc (HG2L7.5c1), luciferase, 24 h; series mostly up to 70.3 µM; activation: at the top concentration
Summary of the method: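 HepG2 cells (HG2L7.5c1) stably carrying a firefly luciferase reporter driven by 20 dioxin responsive elements were exposed to compound for 24 h at 37C after a 5 h settling period; luminescence rise (ONE-Glo) indicated activation.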

Compound	Potency	activation
CN(N=O)c1ccc([N+](=O)[O-])cc1	inconclusive: 17.2 µM [activator, partial curve]	–
O=c1[nH]c(=O)[nH]c(=O)[nH]1	inconclusive: 68.5 µM [activator, single point]	–
Clc1ccc(CCC(Cn2ccnc2)Sc2c(Cl)cccc2Cl)cc1 (stereo not drawn)	inconclusive: 12.7 µM [activator, partial curve, poor fit]	–
c1ccc2c(c1)CCNC2	inconclusive: 31.4 µM [activator, full curve, poor fit]	–
O=C(O)c1ccccn1	inactive	–
C[C@H]1O[C@H](OC2[C@@H](O)[C@@H](O)C(O)[C@H](O)[C@H]2O)[C@@H](N)C[C@@H]1N=C(N)C(=O)O (stereo partly drawn)	–	inactive: -0.752%
CON(C)C(=O)Nc1ccc(Cl)cc1	active: 27.3 µM	–
O=C1c2ccccc2C(=O)C1C(=O)C(c1ccccc1)c1ccccc1	active: 29.8 µM	–

System: not listed separately
Assay: qHTS assay to identify small molecule that activate the aryl hydrocarbon receptor (AhR) signaling pathway - cell viability counter screen (AID 743086); note: nearly all actives have a fitted effect of over 45% in size;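 for viability change, negative = cytotoxic: HepG2 liver cells carrying the AhR DRE luciferase reporter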
Conditions: HepG2-AhR-luc viability, CellTiter-Fluor, 24 h; series mostly up to 70.3 µM; viability change, negative = cytotoxic: at the top concentration
Summary of the method: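 HepG2-AhR-luc (HG2L7.5c1) cells, 4000/well, were preincubated 5 h at 37C, exposed to compound in qHTS format for 24 hr at 37C, then given CellTiter-Fluor for 30 min; viability was read as fluorescence in the reporter wells.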

Compound	viability change, negative = cytotoxic	Potency
CN(N=O)c1ccc([N+](=O)[O-])cc1	inactive: -15.5%	–
CN(C)C1CSSSC1	–	inconclusive: 34.3 µM [rising, partial curve, poor fit]
COC(=O)c1cncn1C(C)c1ccccc1 (stereo not drawn)	inactive: -2.4%	–
O=[N+]([O-])c1cccc2cccnc12	inactive: -0.99% [at 95 µM]	–
C[N+](C)=CCl	inactive: -1.47%	–
Nc1ccccc1C(=O)O	–	inactive

Target: Peroxisome proliferator-activated receptor gamma (Homo sapiens) (UniProt P37231)
Sequence of UniProt P37231 (P37231 whole entry, looked up): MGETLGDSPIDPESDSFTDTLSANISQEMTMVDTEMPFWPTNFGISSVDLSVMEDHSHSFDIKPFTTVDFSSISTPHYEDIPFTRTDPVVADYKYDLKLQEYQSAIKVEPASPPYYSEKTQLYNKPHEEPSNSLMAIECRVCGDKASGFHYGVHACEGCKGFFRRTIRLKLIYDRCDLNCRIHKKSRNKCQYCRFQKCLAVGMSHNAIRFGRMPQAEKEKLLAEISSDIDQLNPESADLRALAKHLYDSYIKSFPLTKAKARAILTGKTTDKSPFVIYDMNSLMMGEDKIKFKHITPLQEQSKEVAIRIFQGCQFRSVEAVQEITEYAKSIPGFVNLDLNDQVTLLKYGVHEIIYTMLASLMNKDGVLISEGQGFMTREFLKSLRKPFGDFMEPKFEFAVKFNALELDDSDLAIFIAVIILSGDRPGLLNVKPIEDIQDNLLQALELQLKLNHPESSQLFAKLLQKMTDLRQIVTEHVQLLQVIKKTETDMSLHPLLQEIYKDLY
Assay: qHTS assay to identify small molecule agonists of the peroxisome proliferator-activated receptor gamma (PPARg) signaling pathway (AID 743094; active = well fitted activation curve with a large enough effect in the signal ratio in the repeat runs, not every such curve was filed as active; inconclusive = weak or mixed curves, or effect the other way; inactive = no such curve, though single readings can be large or run the other way; the % refers to the signal ratio)
Conditions: HEK293H PPARg-UAS-bla, beta-lactamase FRET ratio, 17 h; activation: at 57 µM (top of the series) unless noted
Summary of the method: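 HEK293H PPARg-bla cells, 5 h settle at 37C/5% CO2; compound (DMSO) 17 h, 37C; B/G FRET substrate 1 h RT; fluorescence intensity read-out. qHTS format.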

Compound	activation	Potency
O=C1CC(=O)NC(=O)N1	inconclusive: 1.23%	–
CCCCOC(=O)CCC(=O)OCCCC	inactive: 0.0003%	–
ClCc1ccc(Cl)cc1Cl	–	inconclusive: 61.6 µM [rising, partial curve, poor fit]
C=C(C)C(=O)OCC1CO1 (stereo not drawn)	–	inactive
CC(C)OS(C)(=O)=O	inactive: -3.21% [at 78.9 µM]	–
CN(C)C(=O)Nc1ccc(Cl)cc1	–	inactive
ClCc1ccccc1	inactive: 2.05%	–
CCCCCCCCCCCCCCCC[n+]1ccccc1	inconclusive: -18.6%	inconclusive: 64.5 µM [cytotoxic, single point] and inconclusive: 38.9 µM [inhibitor, partial curve] and inconclusive: 54.2 µM [inhibitor, single point]
c1cncc([C@@H]2CCCCN2)c1	inactive: -0.495%	–
COC(N)=O	inactive: 7.63%	–
CCCCC(CC)COC(=O)OOC(C)(C)C (stereo not drawn)	inactive: 0.443%	–
Clc1ccc(CCC(Cn2ccnc2)Sc2c(Cl)cccc2Cl)cc1 (stereo not drawn)	–	inconclusive: 11.5 µM [falling, partial curve, poor fit]
BrCBr	inactive: -0.913% [at 78.9 µM]	–
c1ccc2c(c1)CCNC2	–	inconclusive: 0.399 µM [rising, full curve, poor fit]
O=C(CBr)c1ccc(O)cc1	inconclusive: 10.4%	–
BrCCCBr	inconclusive: -1.34% [at 78.9 µM]	–
CCCCC1C(=O)NC(=O)N(C2CCCCC2)C1=O (stereo not drawn)	inactive: 0.0497%	–
NC(=O)C(Cl)(Cl)Cl	inactive: -2.75% [at 78.9 µM]	–
O=C(O)c1cc(Cl)ccc1Cl	inactive: -0.869%	–
C/C=C/c1ccc2c(c1)OCO2	–	inactive
CCC[N+](=O)[O-]	–	inactive
CS(=O)(=O)c1cc(C(F)(F)F)ccc1C(=O)c1cnoc1C1CC1	inactive: 10.4%	–
